Laboratory results reported in publication PMC1521118 (Environmental Health Perspectives, 1993).
Like-named read-outs stand apart in the source and are kept apart here.

Assays:
[1] = test system: Salmonella typhimurium TA100; settings: for mutagenic activity toward TA100 (in words): 100 ng/plate or less
[2] = test system: Salmonella typhimurium TA100; settings: cited from earlier work

ONc1ncnc2nc[nH]c12 [6-Hydroxylaminopurine]
histidine revertants/plate, TA100 ([1]; with (+) S9, 1 ng/plate): 170 + 22 histidine revertants/plate
mutagenicity toward TA100 ([2]; ref 35 (McCartney et al.)): mutagenic

ONc1ncnc2c1ncn2Cc1ccccc1 [9-Benzyl-6-hydroxylaminopurine]
mutagenic activity toward TA100 (in words) ([1]; absence of S9): highly active
mutagenic activity toward TA100 (in words) ([1]; presence of S9): even more active

Cn1cnc2c(N)ncnc21 [9-Methyladenine]
histidine revertants/plate, TA100 ([1]; without (-) S9, 100 ng/plate): 111 + 5 histidine revertants/plate

Nc1c2[nH]cnc2nc[n+]1[O-] [Adenine-1-N-oxide]
histidine revertants/plate, TA100 ([1]; with (+) S9, 100 ng/plate): 117 + 20 histidine revertants/plate

Nc1ncnc2nc[nH]c12 [Adenine]
histidine revertants/plate, TA100 ([1]; without (-) S9, 100 ng/plate): 108 + 15 histidine revertants/plate
mutagenicity toward TA100 [2]: inactive
